PMC6366860 (Journal of molecular and cellular cardiology, 2018)

Target: F-actin from rabbit skeletal muscle (rabbit, UniProt P68135)
Experiment: co-sedimentation

- Kd: 8.6 µM
B1: wild-type human cMyBP-C C0-C2 (domain or fragment)
chain: not shown
